Inconclusive results, whose numbers are uncertain, are shown with a selection of clear calls. A call without a number means that no potency is given here. Where the call is inconclusive, the potency comes from a doubtful curve fit. Some compounds were tested as several samples or in several runs, with calls that do not always agree. Activity calls are given as the source filed them. The call rests on the fitted dose curve; in most records, active means well fitted cell-killing curve with a large enough effect in the repeat runs; inconclusive means weak or mixed curves, or effect the other way; inactive means no such curve, though single readings can be large or run the other way.
Experiment: qHTS assay to identify small molecule agonists of the RXR signaling pathway - cell viability counter screen (AID 1159529); further: nearly all actives have a fitted effect of over 50% in size
Conditions: RXR-alpha-bla HEK293T viability, CellTiter-Glo, 16 h; series mostly up to 76.8 µM
How it was run: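 Cell viability is measured by CellTiter-Glo luminescence, 30 min at room temperature, in wells already read for beta-lactamase. Engineered HEK 293T cells (RXR-alpha-UAS-bla) are dosed 16 hr at 37 C. Tetraoctyl ammonium bromide serves as positive control.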
Potency means the concentration at half of the fitted maximal effect; tags describe the fitted curve by direction and shape.

Row | SMILES | Potency | activity change, negative = cytotoxicity
1 | Cc1cc2c(s1)Nc1ccccc1N=C2N1CCN(C)CC1 | inconclusive: 4.25 µM [cytotoxic, partial curve, poor fit] | 
2 | CC1CC(O)CC(C)(C)C1 (centres undefined) | inconclusive: 49 µM [cytotoxic, partial curve, poor fit] | 
3 | O=C(NCC1CN(c2ccc(N3CCOCC3=O)cc2)C(=O)O1)c1ccc(Cl)s1 (centres undefined) | inconclusive: 23.9 µM [cytotoxic, partial curve, poor fit] | 
4 | CC1=CCC(C(C)C)C=C1 (centres undefined) | inconclusive: 13.8 µM [cytotoxic, partial curve, poor fit] | 
5 | CC(=O)O[Si](C)(OC(C)=O)OC(C)=O | inactive | 
6 | O=C(NCCO[N+](=O)[O-])c1cccnc1 | inactive | 
7 | CCO[Si](CCCCl)(OCC)OCC | inconclusive: 1.54 µM [rising, partial curve, poor fit] | 
8 | O=C=NC1CCC(CC2CCC(N=C=O)CC2)CC1 (centres undefined) | inconclusive: 11 µM [cytotoxic, partial curve] | 
9 | C=C(C)C(=O)OCCOCCOCCOC(=O)C(=C)C | inactive | 
10 | C=C1CC[C@H]2C[C@@H]1C2(C)C | inactive | 
11 | CCN(CC)CCNC(=O)c1cc(Br)c(N)cc1OC | inactive | 
12 | CN1CCC(=C2c3ccccc3CC(=O)c3sccc32)CC1 | inactive | 
13 | CCCCC[Si](OCC)(OCC)OCC | inactive | 
14 | OCCc1ccncc1 | inactive | 
15 | OC(C#CCN1CCCC1)(c1ccccc1)c1ccccc1 | inactive | 
16 | Nc1cc(S(=O)(=O)O)ccc1O | inactive | 
17 | Nc1cccc([N+](=O)[O-])c1 | inactive | 
18 | CCCCNc1ccc(C(=O)OCCOCCOCCOCCOCCOCCOCCOCCOCCOC)cc1 | inconclusive: 1.9 µM [rising, partial curve, poor fit] | 
19 | CCC(C)(CCCC(C)C)OC(C)=O (centres undefined) | inactive | 
20 | COc1ccc(NC(C)=O)cc1 | inconclusive: 31.7 µM [cytotoxic, partial curve, poor fit] | 

Row | SMILES | Potency | activity change, negative = cytotoxicity
21 | CCN(CC)CCNC(C(=O)OCCC(C)C)c1ccccc1 (centres undefined) | inconclusive: 3.38 µM [cytotoxic, partial curve, poor fit] | 
22 | CN(C)C/C=C(/c1ccc(Br)cc1)c1cccnc1 | inconclusive: 8.49 µM [cytotoxic, partial curve, poor fit] | 
23 | Cc1cccc(C)n1 | inactive | 
24 | Nc1ccc2c(S(=O)(=O)O)cccc2c1S(=O)(=O)O | inactive | 
25 | C[N+]1(CC2COC(c3ccccc3)(C3CCCCC3)O2)CCCCC1 (centres undefined) | inconclusive: 13.4 µM [cytotoxic, partial curve, poor fit] | 
26 | CCCCNc1ccc(C(=O)OCCN(CC)CC)cc1 | inconclusive: 3.01 µM [cytotoxic, partial curve, poor fit] | 
27 | C=C[Si](C)(C)Cl | inconclusive: 0.0002 µM | 
28 | N[C@@H](CCC(=O)Nc1ccc([N+](=O)[O-])cc1)C(=O)O | inactive | 
29 | O=C1C(CCS(=O)c2ccccc2)C(=O)N(c2ccccc2)N1c1ccccc1 (centres undefined) | inactive | 
30 | OCc1ccccn1 | inconclusive: 26.8 µM [rising, partial curve, poor fit] | 
31 | O=C(O)Cc1cccc(-c2cc(CCCCCCc3ccc(O[C@H]4O[C@H](CO)[C@@H](O)[C@H](O)[C@@H]4O)c(-c4cccc(CC(=O)O)c4)c3)ccc2O[C@H]2O[C@H](CO)[C@@H](O)[C@H](O)[C@@H]2O)c1 |  | inactive: 12.1% [at 0.29 µM]
32 | CCCCCCCCS(=O)(=O)Cl | inactive | 
33 | C=CCNC(N)=S | active: 38 µM | 
34 | CC(C)(C#N)c1cc(Cn2cncn2)cc(C(C)(C)C#N)c1 | inactive | 
35 | Cc1c(N(C)CS(=O)(=O)O)c(=O)n(-c2ccccc2)n1C | inactive | 
36 | Cc1c(C)n(CCN(C)C)c2ccc(C(=O)OCCN(C)C)cc12 | inconclusive: 21.3 µM [cytotoxic, partial curve] | 
37 | Clc1cccc(-c2cc(Cl)cc(Cl)c2)c1 | inconclusive: 53 µM [cytotoxic, single point] | 
38 | F[B-](F)(F)F | inconclusive: 55.7 µM [cytotoxic, single point] | 
39 | C=CCc1cc(OC)c(O)c(C(=O)NCCO)c1 | inactive | 
